Reference: PubChem BioAssay AID624296 (National Center for Advancing Translational Sciences (NCATS), 2012)
Among all 350,000 compounds or so, about 9,900 (2.8%) were called active. Inconclusive means that the source gave no clear call. Such entries were picked first, then a sample of the others. Calls follow the shape of the dose curve; as a rule, active = well fitted activation curve with a large enough effect; inconclusive = small, poorly fitted or top-dose-only effect; inactive = no such curve, though single readings can be large or run the other way. Potencies of inconclusive entries are left out as doubtful fits.
Potency is read from the fitted curve at half-maximal effect; tags tell the direction and shape of the fitted curve.

Assay: A quantitative high throughput screen for small molecules that induce DNA re-replication in MCF 10a normal breast cells. Also: nearly all actives have a fitted effect of over 50% in size. As to activity, positive = re-replication: % of control where 0% means no effect.
Conditions: MCF 10A DNA re-replication, Hoechst nuclear intensity, 48 h; activity, positive = re-replication: at 46.1 µM (top of the series)
With `O=C(COc1ccc(C(=O)c2ccccc2)cc1)NC1CCCCCC1` the “activity, positive = re-replication” value was inactive: -56.3%.
For `CCN(CC)CCCNC(=O)C(C)n1nc(C)c2sc3ccccc3c2c1=O` (centres undefined), the “activity, positive = re-replication” value was inactive: -0.563%.
With `CCOc1ccc(N=Nc2ccc(O)c3ncccc23)cc1` the Potency was inconclusive [activator, partial curve].
In the case of `NC(=O)C1CCN(CC(O)COCc2ccccc2Cl)CC1` (centres undefined), the Potency is reported as inconclusive [activator, single point].
With `CCN(CC)c1ccc2cc(C(=O)NNC(=O)c3ccc(S(=O)(=O)N4CCCCC4)cc3)c(=O)oc2c1` the Potency was inconclusive [activator, partial curve].
In the case of `COc1ccc(OC)c(-c2c3c([nH]c(=S)c2C#N)CCCC3)c1`, the “activity, positive = re-replication” value is reported as inactive: -3.05%.
With `COc1cc2c(cc1NC(=O)C(c1ccccc1)c1ccccc1)CCCC2` the Potency was inconclusive [activator, full curve, poor fit].
For `COc1ccccc1CNC(=O)[C@@H]1CCCN1S(=O)(=O)c1ccc(Cl)cc1`, the “activity, positive = re-replication” value was inactive: -7.18%.
With `Cn1c2ccccc2c2ncn(CCC3=CCCCC3)c(=O)c21` the Potency was inconclusive [activator, single point].
For `CCCCCn1c(C)c2c(OCC)cccc(=O)c2c1C`, the “activity, positive = re-replication” value was inactive: 0.669%.
With `CC1=CC(=O)C=C(C)C1=NOC(=O)/C=C\c1ccccc1` the Potency was inconclusive [activator, partial curve, poor fit].
With `CCC(Sc1nnc(C)s1)C(=O)Nc1nccs1` (centres undefined) the Potency was inconclusive [activator, partial curve, poor fit].
In the case of `C=CCOc1cccc(C2C(C(=O)c3cc4ccccc4o3)=C(O)C(=O)N2c2cc(C)on2)c1` (centres undefined), the Potency is reported as active: 20.6 µM.
With `Cc1nnc(N/N=C\c2ccc(-c3cccc(C(=O)O)c3)o2)n1N` the Potency was inconclusive [activator, single point].
For `COc1ccc(Nc2oc(COc3ccccc3OC)nc2C#N)cc1`, the Potency was inconclusive [activator, single point].
In the case of `CCCCC(=O)Nc1nc(-c2ccc(S(=O)(=O)N3CCOCC3)cc2)cs1`, the Potency is reported as inconclusive [activator, full curve, poor fit].
For `O=C(O)c1ccccc1C(=O)NC1CCCc2ccccc21` (centres undefined), the “activity, positive = re-replication” value was inactive: -2.74%.
For `COc1cccc(N(CC(=O)N2CCCCCC2)S(C)(=O)=O)c1`, the Potency was active: 0.82 µM.
For `C=CCc1c(C)nc2ccc(C(=O)OCC)cc2c1Cl`, the Potency was inconclusive [activator, single point].
For `CS(=O)(=O)c1ccc2nc(NC(=O)c3ccc(NS(=O)(=O)c4cccc([N+](=O)[O-])c4)cc3)sc2c1`, the Potency was inconclusive [activator, single point].
In the case of `O=C(CCN1C(=O)c2cccc3cccc(c23)C1=O)N1CCOCC1`, the “activity, positive = re-replication” value is reported as inactive: 19.7%.
With `COC(=O)c1sc(Nc2ccccc2)nc1C` the Potency was inconclusive [activator, single point].
In the case of `Cc1ccc2oc(=O)c(/C=C(\O)c3cccs3)nc2c1`, the Potency is reported as inconclusive [activator, partial curve, poor fit].
With `COc1ccc(-n2nc3c(N4CCC(C(=O)NCc5cccc(C)c5)CC4)nnc(C)c3c2C)cc1` the Potency was inconclusive [activator, single point].
In the case of `O=C(C1CC1)N1CCc2cc(S(=O)(=O)N3CCOCC3)ccc21`, the “activity, positive = re-replication” value is reported as inactive: -3.32%.
In the case of `Cc1noc(C)c1C(=O)N1CCN(c2ccc(OCc3ccccc3)cc2)CC1`, the Potency is reported as inconclusive [activator, partial curve, poor fit].
For `O=S(=O)(c1cccs1)N1CCN(c2ccc(Cl)cc2)CC1`, the Potency was inconclusive [activator, partial curve, poor fit].
With `COc1ccc(C)cc1N(CC(=O)N1CCc2ccccc2C1)S(C)(=O)=O` the “activity, positive = re-replication” value was inactive: 6.2%.
In the case of `COc1cc2ccccc2cc1C(=O)Nc1cc(C)ccn1`, the Potency is reported as inconclusive [activator, partial curve, poor fit].
With `COc1ccc(CN2CCN(Cc3cc4ccccc4o3)CC2CCO)cc1C` (centres undefined) the Potency was inconclusive [activator, partial curve, poor fit].
For `CC1CN(CCOc2ccc([N+](=O)[O-])cc2)CC(C)O1` (centres undefined), the Potency was inconclusive [activator, partial curve, poor fit].
With `O=C(COc1ccccc1-c1ccccc1)NCc1cccc(Cl)c1` the Potency was inconclusive [activator, single point].
In the case of `CCOc1ccccc1C(=O)Nc1ccc(S(=O)(=O)N2CCOCC2)cc1`, the Potency is reported as inconclusive [activator, partial curve, poor fit].
For `Cc1ccc(Nc2c([N+](=O)[O-])c(=O)oc3ccccc23)cc1C`, the Potency was inconclusive [activator, single point].
In the case of `COc1ccc2[nH]c3c(c2c1)CCN1C(=O)C(CC(=O)NCCN2CCOCC2)C[C@H](C(=O)N2CCOCC2)[C@@]31CCC1CCCC1` (some centres undefined), the Potency is reported as inconclusive [activator, partial curve, poor fit].
For `Clc1ccc2c(N3CCOCC3)ccnc2c1`, the Potency was inconclusive [activator, single point].
With `CCCOc1ccc(/C=C/C(=O)NC2CCCCC2)cc1OC` the Potency was inconclusive [activator, partial curve, poor fit].
For `Cc1ccc(C(C[N+](=O)[O-])n2nc(C)cc2C)cc1` (centres undefined), the Potency was inconclusive [activator, single point].
With `CCOC(=O)c1ccc(CNC(=O)c2cc(COc3ccccc3SC)on2)o1` the Potency was inconclusive [activator, single point].
With `O=C(Nc1cccc(C(F)(F)F)c1)c1cc2ncc(Br)cn2n1` the “activity, positive = re-replication” value was inactive: -8%.
For `COC(=O)c1c(NC(=O)c2ccccc2OC)sc(C(=O)N2CCOCC2)c1C`, the Potency was inconclusive [activator, single point].
In the case of `COc1c(C)cc(Br)cc1C(=O)Nc1ccc(Cc2ccncc2)cc1`, the Potency is reported as active: 16.4 µM.
With `CC(C)(C)C1=CC(=O)C(=O)C(C(C)(C)C)=C1` the Potency was inconclusive [activator, single point].
With `CCS(=O)(=O)Nc1ccc(C2=NN(C(=O)c3ccco3)C(c3ccc(Cl)o3)C2)cc1` (centres undefined) the “activity, positive = re-replication” value was inactive: 21.7%.
With `CC[C@@H]1C(c2ccccc2)=NN(c2ccccc2)[C@H]1C(=O)N1CCOC1=O` the Potency was active: 23.1 µM.
In the case of `CCCCOc1ccc(C(=O)N2CCN(c3ccc(N4CCOCC4)nn3)CC2)cc1`, the “activity, positive = re-replication” value is reported as inactive: 11.7%.
With `O=C(Nc1cccc(O)c1)c1noc2c1CCCCC2` the Potency was inconclusive [activator, full curve, poor fit].
In the case of `CCOc1ccc(S(=O)(=O)N2CCCCC2)cc1NC(=O)CCc1ccc(OC)cc1`, the Potency is reported as inconclusive [activator, single point].
In the case of `COc1ccc(NC(=O)N2CCN(c3nc(-c4cccc(OC)c4)cs3)CC2)cc1`, the Potency is reported as inconclusive [activator, single point].
With `COc1ccc(NC(=O)CSc2ccc(-c3sc(C)nc3C)nn2)cc1OC` the Potency was inconclusive [activator, partial curve, poor fit].
For `CC(C)=CCc1c(O)cc(O)c2c1OC(c1ccc(O)cc1)CC2=O` (centres undefined), the Potency was inconclusive [activator, partial curve, poor fit].
In the case of `CN(CCOc1ccc(-c2ccn(S(=O)(=O)c3c(Cl)cccc3Cl)n2)cc1)c1ccccn1`, the Potency is reported as inconclusive [activator, partial curve].
With `O=C(Nc1ncc2c(n1)-c1ccccc1OC2)c1cccc([N+](=O)[O-])c1` the “activity, positive = re-replication” value was inactive: -0.121%.
In the case of `O=C(CSc1ncccc1C(=O)O)c1ccccc1F`, the “activity, positive = re-replication” value is reported as inactive: 7.49%.
In the case of `O=C(COC(=O)c1ccc(F)cc1Cl)NC(=O)NC1CCCC1`, the “activity, positive = re-replication” value is reported as inactive: -1.82%.
For `O=C(CN1CCCCC1)N1CCCc2ccccc21`, the “activity, positive = re-replication” value was inactive: -2.61%.
With `CC1(C)C(=O)Nc2ccccc2N1C(=O)COC(=O)CNS(=O)(=O)c1ccc(F)c(F)c1F` the “activity, positive = re-replication” value was inactive: 7.57%.
In the case of `COc1ccc(C(=O)N2CCN(C)C(=O)[C@@H]2C)cc1OC1CCN(C(C)C)CC1`, the Potency is reported as inconclusive [activator, partial curve, poor fit].
In the case of `Cn1c(Cc2ccccc2)nnc1SCC(=O)c1ccc(Br)s1`, the “activity, positive = re-replication” value is reported as inactive: -1.02%.
For `CCCCn1c(N)c(N(C)C(=O)c2cccc(-n3cnnn3)c2)c(=O)[nH]c1=O`, the “activity, positive = re-replication” value was inactive: 5.04%.
In the case of `C/C=C1\COC(C(=O)NCc2ccncc2)(C(F)(F)F)C=C1C=C1CCCCC1` (centres undefined), the Potency is reported as inconclusive [activator, full curve, poor fit].
In the case of `Cc1cccc(OCC(=O)NC(=S)Nc2ccc(S(=O)(=O)NC3CCCCC3)cc2)c1`, the Potency is reported as inconclusive [activator, single point].
With `CC1(C)C(C=C(Cl)Cl)C1C(=O)N(Cc1ccc(Cl)cc1)C1CCS(=O)(=O)C1` (centres undefined) the Potency was inconclusive [activator, partial curve, poor fit].
In the case of `CC1=C(C)/C(=N\OS(=O)(=O)c2ccc(C)cc2)C=CC1=O`, the Potency is reported as inconclusive [activator, partial curve, poor fit].
In the case of `CCOC(=O)c1sc(N)c(C(=O)Nc2ccccc2OC)c1C`, the Potency is reported as active: 10.3 µM.
In the case of `COCCCN1CN(S(=O)(=O)c2ccc(C)cc2C)c2nc3ccccc3nc21`, the “activity, positive = re-replication” value is reported as inactive: -4.72%.
With `COc1ccccc1NC(=O)Cc1csc(NC(=S)Nc2ccc(C)cc2)n1` the Potency was inconclusive [activator, single point].
In the case of `COc1ccc(S(=O)(=O)N2CCc3ccccc32)cc1[N+](=O)[O-]`, the “activity, positive = re-replication” value is reported as inactive: -4.38%.
For `COc1ccc(OCC(=O)N(C)CC2COc3ccccc3O2)cc1` (centres undefined), the Potency was inconclusive [activator, single point].
